# PubChem BioAssay (Tox21)
# Values joined by “and” are separate entries in the source; they are usually repeats but may differ in a detail not shown here. Equal values may be shown once. Inconclusive means that the source gave no clear call. Such entries were picked first, then a sample of the others. For part of these data: Potencies of inconclusive entries are doubtful fits and often do not repeat. Active and inactive are the calls of the source. Unless noted, calls come from the whole dose curve; as a rule, active = well fitted curve in the direction sought with a large enough effect in the repeat runs; inconclusive = weak or mixed curves; inactive = no such curve, though single readings can be large; an effect the other way counts as inactive or inconclusive.
# Key:
# [1] = qHTS assay to identify small molecule that activate the aryl hydrocarbon receptor (AhR) signaling pathway - cell viability counter screen (AID 743086); note: nearly all actives have a fitted effect of over 45% in size
# Method in brief: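 HepG2-AhR-luc (HG2L7.5c1) cells, 4000/well, treated 24 h at 37 C with compound; viability measured as CellTiter-Fluor fluorescence after 30 min in the same wells as the luciferase read.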
# [2] = molecular target: Peroxisome proliferator-activated receptor gamma (Homo sapiens) (UniProt P37231); assay: qHTS assay to identify small molecule antagonists of the peroxisome proliferator-activated receptor gamma (PPARg) signaling pathway (AID 743191; calls by dose curve; note: nearly all actives have a fitted effect of over 30% in size; for ratio activity, negative = inhibition: % is set by controls: 0 for no effect and ±100 for the full control effect); conditions: HEK293H PPARg-UAS-bla, beta-lactamase ratio, antagonist, 17 h; ratio activity, negative = inhibition: at 62.6 µM (top of the series) unless noted
# Method in brief: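 GeneBLAzer PPARg UAS-bla HEK293H cells, 5 h post-plating, exposed to compounds 17 h at 37C. LiveBLAzer B/G FRET substrate added for 1 h at room temperature; beta-lactamase reporter read by fluorescence intensity.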
# [3] = molecular target: Peroxisome proliferator-activated receptor delta (Homo sapiens) (UniProt Q03181); assay: qHTS assay to identify small molecule agonists of the peroxisome proliferator-activated receptor delta (PPARd) signaling pathway (AID 743212; calls by dose curve); conditions: HEK293H PPARd-UAS-bla, beta-lactamase FRET ratio, 17 h; activation: at 62.6 µM (top of the series) unless noted
# Method in brief: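 Read-out: beta-lactamase FRET fluorescence after 2 h room-temperature incubation with LiveBLAzer B/G substrate. Cells were HEK293H carrying a UAS-bla reporter for PPARd, treated at 37 C with DMSO-dissolved compounds.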
# [4] = qHTS assay to identify small molecule antagonists of the peroxisome proliferator-activated receptor delta (PPARd) signaling pathway - cell viability counter screen (AID 743213); conditions: PPARd-bla HEK293H viability, CellTiter-Glo luminescence, 17 h; viability change, negative = cytotoxic: at 62 µM (top of the series) unless noted; note: nearly all actives have a fitted effect of over 50% in size
# Method in brief: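 Agonist-stimulated (L165041, 300 nM final) HEK293H PPARd UAS-bla cells are exposed to compounds for 17 h at 37 C, and ATP-based luminescence (CellTiter-Glo) from the same wells reports cytotoxicity.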
# [5] = molecular target: Peroxisome proliferator-activated receptor delta (Homo sapiens) (UniProt Q03181); assay: qHTS assay to identify small molecule antagonists of the peroxisome proliferator-activated receptor delta (PPARd) signaling pathway (AID 743215; active = well fitted inhibition curve with a large enough effect in the signal ratio in the repeat runs, not every such curve was filed as active; inconclusive = weak or mixed curves, or effect the other way; inactive = no such curve, though single readings can be large or run the other way; the % refers to the signal ratio); conditions: HEK293H PPARd-UAS-bla, beta-lactamase FRET ratio, antagonist, 17 h; ratio activity, negative = inhibition: at 62 µM (top of the series) unless noted
# Method in brief: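 Plated HEK293H PPARd-bla cells rested 5 h at 37 C and 5% CO2. Compound, then agonist L165041 at 300 nM final, was added; 17 h at 37 C followed. Substrate loading, 2 h room temperature, fluorescence measured.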
# [6] = molecular target: Bile acid receptor (Homo sapiens) (UniProt Q96RI1); assay: qHTS assay to identify small molecule antagonists of the farnesoid-X-receptor (FXR) signaling pathway (AID 743217; active = well fitted inhibition curve with a large enough effect in the signal ratio in the repeat runs, not every such curve was filed as active; inconclusive = weak or mixed curves, or effect the other way; inactive = no such curve, though single readings can be large or run the other way; the % refers to the signal ratio; for activity change, negative = inhibition: % is set by controls: 0 for no effect and ±100 for the full control effect); conditions: HEK293T FXR-UAS-bla, beta-lactamase ratio, CDCA-stimulated, 16 h; activity change, negative = inhibition: at 62.6 µM (top of the series) unless noted
# Method in brief: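 Screen of the Tox21 10K library in quantitative HTS format using FXR-UAS-bla HEK 293T reporter cells. Agonist chenodeoxycholic acid, 50 uM final, added with compounds; 16 h incubation at 37 °C; beta-lactamase FRET fluorescence measured.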
# [7] = qHTS assay to identify small molecule agonists of the farnesoid-X-receptor (FXR) signaling pathway - cell viability counter screen (AID 743218); conditions: FXR-bla HEK293T viability, CellTiter-Glo luminescence, 16 h; viability change, negative = cytotoxic: at 62.6 µM (top of the series) unless noted; note: nearly all actives have a fitted effect of over 45% in size
# Method in brief: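 Viability of FXR-bla HEK 293T cells is measured by ATP-based CellTiter-Glo luminescence following 16 h compound treatment at 37 C and a prior 2 h room-temperature beta-lactamase substrate step.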
# [8] = qHTS assay to identify small molecule antagonists of the farnesoid-X-receptor (FXR) signaling pathway - cell viability counter screen (AID 743221; active = well fitted cell-killing curve with a large enough effect in the repeat runs, not every such curve was filed as active; inconclusive = weak or mixed curves, or effect the other way; inactive = no such curve, though single readings can be large or run the other way; note: nearly all actives have a fitted effect of over 50% in size); conditions: FXR-bla HEK293T viability, CellTiter-Glo luminescence, 16 h; activity change, negative = cytotoxicity: at 62.6 µM (top of the series)
# Method in brief: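 Quantitative HTS of the Tox21 10K library run in parallel with the beta-lactamase reporter read. HEK 293T cells carrying a UAS-driven bla reporter got compound and 50 uM CDCA (final) for 16 h; ATP-based luminescence followed.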
# [9] = molecular target: Vitamin D3 receptor (Homo sapiens) (UniProt P11473); assay: qHTS assay to identify small molecule agonists of the vitamin D receptor (VDR) signaling pathway (AID 743222; calls by dose curve; for activation: % is set by controls: 0 for no effect and ±100 for the full control effect); conditions: HEK293T VDR-UAS-bla, beta-lactamase FRET ratio, 16 h; activation: at 63.5 µM (top of the series) unless noted
# Method in brief: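 Fluorescence from cleaved LiveBLAzer B/G FRET substrate served as readout. VDR-bla cells had been treated 16 h at 37C with test compounds in DMSO, following a 4 h settling period, and substrate was loaded for 2 h at RT.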
# [10] = molecular target: Vitamin D3 receptor (Homo sapiens) (UniProt P11473); assay: qHTS assay to identify small molecule antagonists of the vitamin D receptor (VDR) signaling pathway (AID 743223; active = well fitted inhibition curve with a large enough effect in the signal ratio in the repeat runs, not every such curve was filed as active; inconclusive = weak or mixed curves, or effect the other way; inactive = no such curve, though single readings can be large or run the other way; the % refers to the signal ratio); conditions: VDR-UAS-bla HEK293T, beta-lactamase FRET ratio, 16 h; activity change, negative = inhibition: at 61 µM (top of the series) unless noted
# Method in brief: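 Fluorescence from LiveBLAzer B/G FRET substrate, read after 2 h at room temperature, reflects beta-lactamase reporter activity in VDR-bla cells treated 16 h at 37C with compounds and agonist 1alpha,25-dihydroxyvitamin D3 (3 nM final).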
# [11] = qHTS assay to identify small molecule antagonists of the vitamin D receptor (VDR) signaling pathway - cell viability counter screen (AID 743225); conditions: VDR-bla HEK293T viability, CellTiter-Glo luminescence, 16 h; viability change, negative = cytotoxic: at 61 µM (top of the series) unless noted; note: nearly all actives have a fitted effect of over 50% in size; for viability change, negative = cytotoxic: % is set by controls: 0 for no effect and ±100 for the full control effect
# Method in brief: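 Cells (VDR-UAS-bla HEK 293T) are plated, rested 4 h at 37C, dosed with compound and 3 nM final 1-alpha,25-dihydroxy vitamin D3, and incubated 16 h. Viability is taken from CellTiter-Glo luminescence in the reporter wells.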
# [12] = qHTS assay to identify small molecule antagonists of the peroxisome proliferator-activated receptor gamma (PPARg) signaling pathway - cell viability counter screen (AID 743194); conditions: PPARg-bla HEK293H viability, CellTiter-Glo luminescence, 17 h, co-treated with 50 nM rosiglitazone; activity change, negative = cytotoxicity: at 62.6 µM (top of the series) unless noted; note: nearly all actives have a fitted effect of over 55% in size
# Method in brief: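 Cytotoxicity counter screen in PPARg-bla HEK293H cells, same wells as reporter assay. Compounds plus 50 nM rosiglitazone (final) for 17 h at 37 C, then viability read by CellTiter-Glo luminescence.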
# [13] = qHTS assay for small molecule agonists of the antioxidant response element (ARE) signaling pathway (AID 743202; active = well fitted activation curve with a large enough effect in the signal ratio in the repeat runs, not every such curve was filed as active; inconclusive = weak or mixed curves, or effect the other way; inactive = no such curve, though single readings can be large or run the other way; the % refers to the signal ratio); conditions: HepG2 ARE-bla reporter, beta-lactamase FRET, 16 h; activation: at 73.3 µM (top of the series) unless noted
# Method in brief: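 HepG2 ARE-bla reporter line, 2,000 cells/well; 5 h preincubation 37 C/5% CO2; compound (DMSO) 16 h 37 C; B/G FRET substrate 2 h RT; fluorescence intensity.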
# [14] = qHTS assay for small molecule activators of the heat shock response signaling pathway (AID 743210; active = well fitted activation curve with a large enough effect in the signal ratio in the repeat runs, with a control signal flat, not every such curve was filed as active; inconclusive = weak or mixed curves; the % refers to the signal ratio); conditions: HeLa HSE-bla reporter, beta-lactamase ratio, 5 h; activation: at 62.6 µM (top of the series)
# Method in brief: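 Beta-lactamase reporter read-out: FRET substrate fluorescence after 2.5 h at RT, following 5 h compound treatment at 37 C of HeLa cells carrying HSE-driven bla reporter; quantitative HTS format.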
# [15] = qHTS assay to identify small molecule agonists of the peroxisome proliferator-activated receptor delta (PPARd) signaling pathway - cell viability counter screen (AID 743211); conditions: PPARd-bla HEK293H viability, CellTiter-Glo luminescence, 17 h; activity change, negative = cytotoxicity: at 62.6 µM (top of the series); note: nearly all actives have a fitted effect of over 55% in size
# Method in brief: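 Viability of GeneBLAzer PPARd UAS-bla HEK293H cells was assessed after 17 h compound incubation at 37C, using CellTiter-Glo reagent added after the reporter read and luminescence recorded 30 min later.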
# [16] = qHTS assay to identify small molecule agonists of the vitamin D receptor (VDR) signaling pathway - cell viability counter screen (AID 743224); conditions: VDR-bla HEK293T viability, CellTiter-Glo luminescence, 16 h; activity change, negative = cytotoxicity: at 62.6 µM (top of the series) unless noted; note: nearly all actives have a fitted effect of over 50% in size
# Method in brief: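 Compounds were pin-transferred onto VDR-bla cells plated 4 h earlier; following 16 h incubation at 37C, cell viability was quantified by CellTiter-Glo luminescence after 30 min at room temperature.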
# [17] = qHTS assay for small molecule activators of the heat shock response signaling pathway - cell viability counter screen (AID 743209); conditions: HSE-bla HeLa viability, CellTiter-Glo luminescence, 5 h; activity change, negative = cytotoxicity: at 62.6 µM (top of the series) unless noted; note: nearly all actives have a fitted effect of over 50% in size
# Method in brief: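 Viability of HSE-bla HeLa cells is measured with CellTiter-Glo in the wells already used for the reporter read. Compound exposure lasts 5 h at 37 C, and luminescence is read after 30 min at room temperature.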
# Potency is the fitted concentration of half-maximal effect; tags give direction and shape of the fitted curve or compound fluorescence and quenching.
# Sequence of UniProt Q96RI1 (Q96RI1 whole entry, looked up): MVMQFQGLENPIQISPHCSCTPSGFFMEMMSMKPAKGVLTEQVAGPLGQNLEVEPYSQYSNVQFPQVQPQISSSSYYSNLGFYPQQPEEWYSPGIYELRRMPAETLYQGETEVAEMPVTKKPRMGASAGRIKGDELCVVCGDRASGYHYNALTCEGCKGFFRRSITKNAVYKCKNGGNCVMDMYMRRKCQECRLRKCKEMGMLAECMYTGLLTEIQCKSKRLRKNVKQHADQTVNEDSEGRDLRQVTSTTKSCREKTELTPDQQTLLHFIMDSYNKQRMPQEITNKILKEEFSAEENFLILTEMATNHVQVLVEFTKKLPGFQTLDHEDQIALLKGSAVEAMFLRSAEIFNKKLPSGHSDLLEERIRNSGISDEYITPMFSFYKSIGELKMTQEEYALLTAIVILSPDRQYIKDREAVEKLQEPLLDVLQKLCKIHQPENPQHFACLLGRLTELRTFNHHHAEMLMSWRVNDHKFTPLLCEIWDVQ
# Sequence of UniProt Q03181 (Q03181 whole entry, looked up): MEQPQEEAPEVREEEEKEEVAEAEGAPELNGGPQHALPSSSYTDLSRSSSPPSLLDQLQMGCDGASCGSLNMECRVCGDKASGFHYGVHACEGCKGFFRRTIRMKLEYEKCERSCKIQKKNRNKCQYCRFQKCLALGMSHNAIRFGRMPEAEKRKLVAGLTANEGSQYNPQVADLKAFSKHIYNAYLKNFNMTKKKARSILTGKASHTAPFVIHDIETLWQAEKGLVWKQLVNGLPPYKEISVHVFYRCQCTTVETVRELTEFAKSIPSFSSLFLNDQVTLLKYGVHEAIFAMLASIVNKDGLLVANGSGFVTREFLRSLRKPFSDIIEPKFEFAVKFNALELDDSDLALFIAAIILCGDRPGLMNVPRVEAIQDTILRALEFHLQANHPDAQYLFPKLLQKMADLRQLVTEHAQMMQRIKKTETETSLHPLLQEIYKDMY
# Sequence of UniProt P37231 (P37231 whole entry, looked up): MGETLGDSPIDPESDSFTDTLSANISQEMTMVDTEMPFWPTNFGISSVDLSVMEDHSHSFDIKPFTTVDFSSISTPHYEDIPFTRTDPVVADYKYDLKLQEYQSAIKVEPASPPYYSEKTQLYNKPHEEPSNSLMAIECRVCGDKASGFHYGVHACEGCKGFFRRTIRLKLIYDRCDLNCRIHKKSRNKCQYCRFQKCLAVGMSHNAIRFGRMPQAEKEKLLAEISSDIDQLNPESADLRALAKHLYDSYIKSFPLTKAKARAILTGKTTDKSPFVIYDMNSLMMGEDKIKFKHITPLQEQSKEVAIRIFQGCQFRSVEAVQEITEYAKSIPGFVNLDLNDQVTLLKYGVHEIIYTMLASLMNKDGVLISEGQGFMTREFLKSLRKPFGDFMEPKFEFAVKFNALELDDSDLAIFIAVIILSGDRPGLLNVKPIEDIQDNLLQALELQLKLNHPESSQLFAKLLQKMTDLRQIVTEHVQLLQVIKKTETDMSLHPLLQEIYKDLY
# Sequence of UniProt P11473 (P11473 whole entry, looked up): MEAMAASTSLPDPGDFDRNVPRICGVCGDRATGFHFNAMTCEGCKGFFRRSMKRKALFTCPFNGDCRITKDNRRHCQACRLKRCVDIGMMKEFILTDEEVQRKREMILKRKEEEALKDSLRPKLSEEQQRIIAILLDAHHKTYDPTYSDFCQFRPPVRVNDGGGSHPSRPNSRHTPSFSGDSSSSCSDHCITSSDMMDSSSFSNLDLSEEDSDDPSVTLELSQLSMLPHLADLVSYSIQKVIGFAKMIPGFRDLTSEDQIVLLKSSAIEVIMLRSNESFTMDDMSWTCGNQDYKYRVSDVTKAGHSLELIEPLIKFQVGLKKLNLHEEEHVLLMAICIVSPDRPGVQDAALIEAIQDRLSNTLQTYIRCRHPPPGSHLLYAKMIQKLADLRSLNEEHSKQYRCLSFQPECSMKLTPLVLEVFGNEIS
smiles,measurement,setting,value
O=C(Nc1ccc(Cl)cc1)Nc1ccc(Cl)c(C(F)(F)F)c1,Potency,[1],"inconclusive: 18.8 µM [falling, partial curve]"
same,Potency,[2],"inconclusive: 13.3 µM [inhibitor, single point]"
same,Potency,[3],inconclusive: 13.3 µM [single point]
same,Potency,[4],"inconclusive: 13.3 µM [cytotoxic, partial curve, poor fit]"
same,Potency,[5],active: 26.6 µM
same,Potency,[6],inconclusive: 29.8 µM
same,Potency,[7],"inconclusive: 2.37 µM [cytotoxic, full curve, poor fit]"
same,Potency,[8],active: 16.8 µM
same,activation,[9],inconclusive: -24.8%
same,Potency,[10],inconclusive: 26.8 µM [single point]
same,Potency,[11],active: 12 µM
CC[C@H]1O[C@]2(CC[C@@H]1C)C[C@@H]1C[C@@H](C/C=C(\C)C[C@@H](C)/C=C/C=C3\CO[C@@H]4[C@H](O)C(C)=C[C@@H](C(=O)O1)[C@]34O)O2,Potency,[1],"inconclusive: 60.6 µM [falling, single point]"
same,"ratio activity, negative = inhibition",[2],inconclusive: 38.5% [cytotoxic]
same,Potency,[12],active: 19.3 µM
same,Potency,[13],"inconclusive: 27.1 µM [falling, full curve]"
same,Potency,[14],inconclusive: 11.7 µM
same,Potency,[15],active: 17.2 µM
same,Potency,[3],"inconclusive: 34.4 µM [falling, partial curve]"
same,Potency,[4],active: 15.3 µM
same,Potency,[5],"inconclusive: 61.1 µM [falling, single point]"
same,Potency,[6],"inconclusive: 48.5 µM [cytotoxic, partial curve]"
same,Potency,[7],active: 21.7 µM
same,Potency,[8],active: 17.2 µM
same,activation,[9],inconclusive: 47.7%
same,Potency,[10],"inconclusive: 10.9 µM [rising, partial curve]"
same,Potency,[16],active: 17.2 µM
same,Potency,[11],active: 21.7 µM
Nc1ccc(O)c(C(=O)O)c1,Potency,[1],"inconclusive: 54.5 µM [falling, partial curve, poor fit]"
same,"ratio activity, negative = inhibition",[2],inconclusive: 2.44%
same,"activity change, negative = inhibition",[6],inconclusive: 11.8%
same,Potency,[7],"inconclusive: 13.3 µM [rising, full curve]"
same,Potency,[11],"inactive and inconclusive: 2.19 µM [cytotoxic, single point]"
CC1=C(/C=C/C(C)=C/C=C/C(C)=C/C=O)C(C)(C)CCC1,Potency,[1],"inconclusive: 54.2 µM [falling, partial curve]"
same,Potency,[2],"inconclusive: 61.3 µM [cytotoxic, single point]"
same,Potency,[12],"inconclusive: 54.6 µM [cytotoxic, single point]"
same,activation,[13],inconclusive: -66.9%
same,Potency,[17],active: 34.5 µM
same,Potency,[14],"inconclusive: 48.7 µM [falling, partial curve]"
same,Potency,[4],active: 43.4 µM
same,Potency,[5],active: 48.7 µM
same,Potency,[6],active: 61.3 µM
same,Potency,[7],active: 21.8 µM
same,Potency,[8],active: 48.7 µM
same,Potency,[9],"inconclusive: 10.9 µM [rising, partial curve]"
same,Potency,[10],inconclusive: 34.5 µM [partial curve]
same,Potency,[11],active: 13.7 µM
COc1cc([C@@H]2c3cc4c(cc3[C@@H](O[C@@H]3O[C@@H]5CO[C@@H](C)O[C@H]5[C@H](O)[C@H]3O)[C@H]3COC(=O)[C@H]23)OCO4)cc(OC)c1O,Potency,[1],"inconclusive: 30.3 µM [falling, partial curve]"
same,Potency,[2],"inconclusive: 48.4 µM [rising, partial curve, poor fit]"
same,Potency,[13],inconclusive: 60.4 µM
same,Potency,[14],inconclusive: 50.3 µM
same,Potency,[15],"inconclusive: 38.5 µM [cytotoxic, partial curve, poor fit]"
same,Potency,[4],active: 21.6 µM
same,Potency,[5],inconclusive: 19.3 µM [fluorescent]
same,Potency,[7],inactive
same,Potency,[9],"inconclusive: 17.2 µM [rising, partial curve]"
same,Potency,[10],"inconclusive: 21.6 µM [fluorescent, full curve, poor fit]"
same,Potency,[11],inactive
CCCCC(CC)COC(=O)CC(C(=O)OCC(CC)CCCC)S(=O)(=O)O (centres undefined),Potency,[1],"inconclusive: 29.8 µM [falling, single point]"
same,Potency,[2],inconclusive: 52.9 µM [cytotoxic] and inconclusive: 54.9 µM [inhibitor]
same,Potency,[12],"inconclusive: 52.9 µM [cytotoxic, partial curve, poor fit] and inconclusive: 54.9 µM [cytotoxic, single point]"
same,Potency,[17],"active: 52.9 µM and inconclusive: 54.9 µM [cytotoxic, single point]"
same,Potency,[14],inconclusive: 52.9 µM and inconclusive: 50.9 µM
same,Potency,[15],active: 37.4 µM and active: 24.5 µM
same,Potency,[3],"inconclusive: 49 µM [rising, partial curve, poor fit]"
same,activation,[3],inconclusive: 14.2%
same,Potency,[4],"inconclusive: 42 µM [cytotoxic, partial curve, poor fit] and active: 15.5 µM"
same,Potency,[5],inactive
same,Potency,[7],active: 52.9 µM and active: 43.6 µM
same,Potency,[8],inconclusive: 52.9 µM and active: 43.6 µM
